Measured values taken from PubChem BioAssay AID485341 (National Center for Advancing Translational Sciences (NCATS), 2010).
Hit rate of the full screen: of about 330,000 compounds, about 1,700 (0.52%) were called active. The inconclusive results got no clear call from the source; some entries with a clear call stand among them for comparison. Calls come from the whole dose curve; as a rule, active = well fitted inhibition curve with a large enough effect; inconclusive = small, poorly fitted or top-dose-only effect; inactive = no such curve, though single readings can be large or run the other way. A potency beside an inconclusive call is a rough fit, not a confirmed value.
Note: nearly all actives have a fitted effect of over 20% in size.
Potency is the fitted concentration of half-maximal effect; tags give direction and shape of the fitted curve.

Each compound was assayed against Beta-lactamase (Escherichia coli (strain K12)) (UniProt P00811) (assay: qHTS Inhibitors of AmpC Beta-Lactamase (assay without detergent)). Conditions: AmpC nitrocefin hydrolysis, absorbance 480 nm, 0.0001% Triton; activity change, negative = inhibition: at 57.1 µM (top of the series) unless noted.
Chain of UniProt P00811 (P00811 whole entry, looked up): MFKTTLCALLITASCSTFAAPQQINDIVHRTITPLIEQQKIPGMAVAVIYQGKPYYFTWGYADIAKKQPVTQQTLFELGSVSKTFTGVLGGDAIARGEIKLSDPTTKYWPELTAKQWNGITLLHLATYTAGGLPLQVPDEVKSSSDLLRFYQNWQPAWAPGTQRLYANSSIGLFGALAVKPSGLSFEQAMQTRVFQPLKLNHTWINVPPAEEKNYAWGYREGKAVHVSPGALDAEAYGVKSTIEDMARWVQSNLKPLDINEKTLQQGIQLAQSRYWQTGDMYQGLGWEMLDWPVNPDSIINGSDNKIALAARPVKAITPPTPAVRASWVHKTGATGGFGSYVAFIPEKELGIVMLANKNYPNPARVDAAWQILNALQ
In short: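 20 mM phosphate pH 7.0 + 0.01% (detergent screen) or 0.0001% Triton X-100; 5.3 nM AmpC reagent; cpd preinc 15 min RT; nitrocefin (800 uM stock) to start; A480 q20 s × 4 min; Activity was normalised to no-enzyme and no-compound control wells.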
In the case of `COc1ccc(Cl)cc1NC(=O)C(C)OC(=O)c1ccc(NS(=O)(=O)c2ccc3[nH]c(=O)[nH]c3c2)cc1` (stereo not given), the Potency is reported as active: 3.55 µM. With `O=C(Nc1ccccc1C(=O)O)c1cccc(NC(=O)c2ccccc2Cl)c1` the Potency was “inactive”. For `CC(C)c1ccc(NC(=O)NN2CCOCC2)cc1`, the Potency was “inactive”. In the case of `COc1ccc(CN2c3c(Br)cccc3C(=O)CS2(=O)=O)cc1`, the Potency is reported as active: 12.6 µM. `Cc1ccc(C2CC(c3cccs3)=NN2C(=O)CCl)cc1` (stereo not given) was tested, and the Potency was inconclusive: 28.2 µM [inhibitor, single point]. For `COC(=O)c1ccc(/C=N/NC(=O)CC(=O)NCC(C)C)cc1`, the Potency was inconclusive: 6.31 µM [inhibitor, single point]. `CCn1ncc(Br)c1C(=O)Nc1ccc(Cl)cn1` was tested, and the Potency was inconclusive: 4.47 µM [inhibitor, single point]. `CCCOc1ccccc1NC(=O)CC1Nc2ccccc2NC1=O` (stereo not given) was tested, and the Potency was active: 17.8 µM. In the case of `Cn1nnnc1SCC(=O)N1c2ccccc2Sc2ccc(Cl)cc21`, the Potency is reported as active: 1.26 µM. In the case of `CCOc1ccc(NC(=O)CN(C)C(=O)c2ccc3[nH]c4c(c3c2)CC(C)CC4)cc1OCC` (stereo not given), the Potency is reported as inconclusive: 39.8 µM [inhibitor, single point]. For `O=C(Nc1ccc(F)cc1F)c1cc(-c2ccco2)nc2ccccc12`, the Potency was “inactive”. `NS(=O)(=O)c1ccc(CNC(=O)CCCSc2ccccc2)cc1` was tested, and the Potency was inconclusive: 39.8 µM [inhibitor, single point]. With `CC(=O)Nc1nc(C)c(-c2csc(Nc3ccc(O)cc3)n2)s1` the Potency was inconclusive: 5.01 µM [inhibitor, partial curve, poor fit]. In the case of `Cc1cc(C)nc(OC(=O)c2ccc(Cl)cc2Cl)n1`, the Potency is reported as “inactive”. For `Cc1ccc(CSc2nc3nc(C)cc(C)c3c(=O)[nH]2)cc1`, the Potency was inconclusive: 17.8 µM [inhibitor, partial curve]. In the case of `CCOC(=O)c1nn(-c2ccc(Cl)cc2)c2nc(-c3ccc(C)cc3)c(C#N)c(=O)n12`, the Potency is reported as inconclusive: 8.91 µM [inhibitor, full curve, poor fit]. In the case of `O=C(COc1cc(Cl)c(Cl)cc1Cl)NCCN1CCOCC1`, the Potency is reported as inconclusive: 3.98 µM [inhibitor, single point]. In the case of `O=C1c2ccccc2-c2cccc(NS(=O)(=O)c3ccc(C(F)(F)F)cc3)c21`, the Potency is reported as active: 5.62 µM. In the case of `O=C1NN(c2ccc(Cl)c(Cl)c2)C(=O)/C1=C/c1cccc(OC(=O)c2cccs2)c1`, the Potency is reported as inconclusive: 15.8 µM [inhibitor, partial curve]. With `CS(=O)(=O)Nc1ccc(C(=O)NCCSCc2ccco2)cc1` the Potency was inconclusive: 6.31 µM [inhibitor, single point]. With `CCOC(=O)c1ccc(-n2ccnc2)c(NC(=O)c2ccc(C(C)(C)C)cc2)c1` the Potency was inconclusive: 7.08 µM [inhibitor, single point]. In the case of `Cc1ccc(NC(=O)c2cc(S(=O)(=O)c3ccccc3)ccc2Cl)cc1`, the Potency is reported as inconclusive: 35.5 µM [inhibitor, single point]. `CCCCN(CCCC)S(=O)(=O)c1ccc(NC(=O)Cc2cccs2)cc1` was tested, and the Potency was inconclusive: 35.5 µM [inhibitor, single point]. With `Cc1c(C(=O)NCCSCc2ccccc2Cl)cccc1[N+](=O)[O-]` the Potency was active: 0.251 µM. `COc1cc2c(cc1OC)[C@@H]1O[C@](c3ccsc3)(C2)Oc2cc(C)n(-c3ccccc3)c(=O)c21` was tested, and the activity change, negative = inhibition was inactive: -27.6% [at 11.4 µM]. `CC(=O)c1cccc(NC(=O)CSc2nc(=O)n(CCN3CCOCC3)c3c2CCC3)c1` was tested, and the Potency was inconclusive: 35.5 µM [inhibitor, single point]. With `O=C1C(=C2CCCCC2)SC(=S)N1Cc1ccco1` the Potency was inconclusive: 39.8 µM [inhibitor, single point]. In the case of `CCOC(=O)c1c(-c2ccccc2)csc1NC(=O)CSc1nc(N)cc(N)n1`, the Potency is reported as “inactive”. `CCS(=O)c1ccccc1C(=O)OC(C)C(=O)Nc1ccc(S(=O)(=O)N2CCCC2)cc1` (stereo not given) was tested, and the Potency was inconclusive: 31.6 µM [inhibitor, single point]. With `Cc1ccc(S(=O)(=O)Cn2nnnc2CN2CCN(C(=O)c3ccco3)CC2)cc1` the Potency was “inactive”. In the case of `CN(C)c1cccc(C(=O)N/N=C/c2ccsc2)c1`, the Potency is reported as “inactive”. With `CC(C)(C)NC(=O)C(c1cccs1)N(C(=O)c1csnn1)c1cccc(F)c1` (stereo not given) the Potency was “inactive”. In the case of `C[N+]12CCC(CC1)C(C(O)(c1ccccc1)c1cccs1)C2` (stereo not given), the Potency is reported as inconclusive: 6.31 µM [inhibitor, single point]. `N#Cc1ccc(NC(=O)CCc2ccc(S(=O)(=O)N3CCOCC3)cc2)cc1` was tested, and the Potency was “inactive”. `Cc1cccc2nc(CSc3nc4ccc([N+](=O)[O-])cc4[nH]3)c(Br)n12` was tested, and the Potency was inconclusive: 2 µM [inhibitor, full curve, poor fit]. In the case of `O=C(/C(=N\Nc1ccccc1)Sc1nnnn1-c1ccccc1)c1ccccc1`, the Potency is reported as active: 1.12 µM. With `COc1cc(C(=O)N/N=C(\C)c2ccc3c(c2)OCO3)cc(OC)c1OC` the Potency was “inactive”. In the case of `COc1ccc(C(=O)NC2CCN(C(=S)Nc3cc(C)ccc3C)CC2)cc1`, the Potency is reported as inconclusive: 0.141 µM [inhibitor, full curve, poor fit]. For `O=C(CCCN1C(=O)CSc2ncccc21)N1CCN(Cc2ccccc2)CC1`, the Potency was inconclusive: 1.12 µM [inhibitor, full curve, poor fit]. In the case of `Cc1ccc(NCCC(=O)c2cccc([N+](=O)[O-])c2)c(C)c1`, the Potency is reported as active: 20 µM. With `CN(NC(=O)c1ccccc1)c1nc2ccccc2nc1C(F)(F)F` the Potency was inconclusive: 5.01 µM [inhibitor, partial curve, poor fit]. In the case of `COc1ccc(CCNC(=O)c2ccccc2NS(=O)(=O)c2c(F)cccc2F)cc1`, the Potency is reported as inconclusive: 8.91 µM [inhibitor, partial curve]. In the case of `O=C(Nc1ccc(N2CCOCC2)nc1)c1ccc(C(F)(F)F)cc1`, the Potency is reported as “inactive”. In the case of `Cc1ccc(N2C(=O)[C@@H]3[C@H](C2=O)C2c4ccccc4C=NN2[C@@H]3C(=O)c2ccc(Cl)cc2)cc1` (stereo not given in full), the Potency is reported as inconclusive: 3.55 µM [inhibitor, full curve, poor fit]. `CCCCOc1ccccc1NC(=O)c1ccco1` was tested, and the Potency was inconclusive: 5.01 µM [inhibitor, single point].
